{
  "source": "patent JP2014043405A",
  "binders": {"B1": {"name": "IL6R-G4d/IL6R-L (antibody, human IgG4 S228P)", "heavy": "QVQLQESGPGLVKPSETLSLTCAVSGHSISHDHAWSWVRQPPGEGLEWIGFISYSGITNYNPSLQGRVTISRDNSKNTLYLQMNSLRAEDTAVYYCARSLARTTAMDYWGEGTLVTVSSASTKGPSVFPLAPCSRSTSESTAALGCLVKDYFPEPVTVSWNSGALTSGVHTFPAVLQSSGLYSLSSVVTVPSSSLGTKTYTCNVDHKPSNTKVDKRV[human IgG4 Fc with S228P (EU numbers) not given here]", "light": "DIQMTQSPSSLSASVGDRVTITCRASQDISSYLNWYQQKPGKAPKLLIYYTSRLHSGVPSRFSGSGSGTDFTFTISSLQPEDIATYYCQQGNTLPYTFGQGTKVEIK"}, "B2": {"name": "IL6R-B3/IL6R-L (antibody, human IgG1)", "heavy": "QVQLQESGPGLVKPSETLSLTCAVSGHSISHDHAWSWVRQPPGEGLEWIGFISYSGITNYNPSLQGRVTISRDNSKNTLYLQMNSLRAEDTAVYYCARSLARTTAMDYWGEGTLVTVSS[human IgG1 constant region with K439E (EU numbers) not given here]", "light": "DIQMTQSPSSLSASVGDRVTITCRASQDISSYLNWYQQKPGKAPKLLIYYTSRLHSGVPSRFSGSGSGTDFTFTISSLQPEDIATYYCQQGNTLPYTFGQGTKVEIK"}, "B3": {"name": "IL6R-G1d/IL6R-L (antibody, human IgG1)", "heavy": "QVQLQESGPGLVKPSETLSLTCAVSGHSISHDHAWSWVRQPPGEGLEWIGFISYSGITNYNPSLQGRVTISRDNSKNTLYLQMNSLRAEDTAVYYCARSLARTTAMDYWGEGTLVTVSS[human IgG1 constant region not given here]", "light": "DIQMTQSPSSLSASVGDRVTITCRASQDISSYLNWYQQKPGKAPKLLIYYTSRLHSGVPSRFSGSGSGTDFTFTISSLQPEDIATYYCQQGNTLPYTFGQGTKVEIK"}, "B4": {"name": "IL6R-BF648/IL6R-L (antibody, human IgG1)", "heavy": "QVQLQESGPGLVKPSETLSLTCAVSGHSISHDHAWSWVRQPPGEGLEWIGFISYSGITNYNPSLQGRVTISRDNSKNTLYLQMNSLRAEDTAVYYCARSLARTTAMDYWGEGTLVTVSS[human IgG1 constant region with P238D K439E (EU numbers) not given here]", "light": "DIQMTQSPSSLSASVGDRVTITCRASQDISSYLNWYQQKPGKAPKLLIYYTSRLHSGVPSRFSGSGSGTDFTFTISSLQPEDIATYYCQQGNTLPYTFGQGTKVEIK"}},
  "key": {"[1]": {"target": "ヒトFcγRIIa (R) (human) (UniProt P12318)", "test": "SPR, KD; reference IL6R-G1d/IL6R-L"}, "[2]": {"target": "ヒトFcγRIIb (human) (UniProt P31994)", "sequence (P31994 43-217)": "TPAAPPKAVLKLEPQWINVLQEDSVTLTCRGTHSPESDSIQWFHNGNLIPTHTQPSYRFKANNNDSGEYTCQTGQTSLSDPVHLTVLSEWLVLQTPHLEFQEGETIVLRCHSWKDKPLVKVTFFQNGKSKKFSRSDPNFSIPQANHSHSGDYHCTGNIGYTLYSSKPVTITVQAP", "test": "SPR, KD; reference IL6R-G1d/IL6R-L"}, "[3]": {"target": "ヒトFcγRIIb (human) (UniProt P31994)", "test": "SPR; KD for FcγRIIaR divided by KD for FcγRIIb"}, "[4]": {"target": "ヒトFcγRIIb (human) (UniProt P31994)", "test": "SPR; KD for FcγRIIaH divided by KD for FcγRIIb"}, "[5]": {"target": "ヒトFcγRIIa (H) (human) (UniProt P12318)", "test": "SPR, KD; reference IL6R-B3/IL6R-L"}, "[6]": {"target": "ヒトFcγRIIa (R) (human) (UniProt P12318)", "test": "SPR, KD; reference IL6R-B3/IL6R-L"}, "[7]": {"target": "ヒトFcγRIIIa V型 (human) (UniProt P08637)", "test": "SPR, KD; reference IL6R-B3/IL6R-L"}, "[8]": {"target": "ヒトFcγRIIb (human) (UniProt P31994)", "test": "SPR, KD; reference IL6R-B3/IL6R-L"}},
  "data": [
    {"binder": "B1", "values": [
      {"measurement": "fold weaker binding than IL6R-G1d/IL6R-L", "setting": "[1]", "result": 2.2, "unit": "fold"},
      {"measurement": "fold stronger binding than IL6R-G1d/IL6R-L", "setting": "[2]", "result": 1.5, "unit": "fold"}
    ]},
    {"binder": "B2", "values": [
      {"measurement": "KD(IIaR)/KD(IIb)", "setting": "[3]", "result": 0.3},
      {"measurement": "KD(IIaH)/KD(IIb)", "setting": "[4]", "result": 0.2}
    ]},
    {"binder": "B3", "values": [
      {"measurement": "binding relative to IL6R-B3/IL6R-L (=1)", "setting": "[5]", "result": 1.1, "unit": "fold"},
      {"measurement": "binding relative to IL6R-B3/IL6R-L (=1)", "setting": "[6]", "result": 1.1, "unit": "fold"},
      {"measurement": "binding relative to IL6R-B3/IL6R-L (=1)", "setting": "[7]", "result": 0.9, "unit": "fold"},
      {"measurement": "binding relative to IL6R-B3/IL6R-L (=1)", "setting": "[8]", "result": 1.2, "unit": "fold"}
    ]},
    {"binder": "B4", "values": [
      {"measurement": "fold improvement of binding activity against IL6R-B3", "setting": "[8]", "result": 2.6, "unit": "fold"}
    ]}
  ]
}
